# ± gives the standard deviation. The entries are a selection whose mix differs from that of the whole data set.
# Tested on: MIWI (PIWIL1) piRISC loaded with piRNA #1 (30 nt)
# Test: pre-steady-state target cleavage rate (min^-1); MIWI and MILI are mouse PIWI proteins and EfPiwi is from a freshwater sponge; tags in brackets are library labels; higher = faster piRNA-guided slicing of the target
# Settings: guide: piRNA #1 5'p-UGAGGUAGUAGGUUGUAUAGUAUCCAGAGG; auxiliary factor: 500 nM mouse GTSF1
# Outline: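 Three pooled Cleave-'n-Seq trials supplied the data, with k3 capped at 0.0001 min^-1. In each, […] transcribed, DNA-blocked target RNA library and 1 nM active affinity-purified piRISC with one synthetic guide reacted in HEPES–potassium acetate buffer at 33 °C for 0–8 or 0–960 min, with or without 500 nM GTSF1 partner protein. Uncleaved targets were sequenced and normalised to depth and to weakly complementary targets. A burst-and-steady-state fit provided the pre-steady-state cleavage rate.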
# 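Also: 1 nM active piRISC with 0.1 nM target library at 33 °C single turnover.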
row,Sequence,pre-steady-state target cleavage rate
1,GCUCUGGAUUCUAUACAACCAACUACCUCA,0.148 ± 0.014
2,CCUGUGGAUACUAAACAACCUACUACCUCA,1.92 ± 0.12
3,CGUCUGGAUACUAUACAACCUAGUACCUCA,0.164 ± 0.026
4,CCUCAGGAUACUAUACAACCUAGUACCUCA,0.13 ± 0.025
5,GGUCUGGAUACUAUACAACCUACUACCCA,0.281 ± 0.067
6,GGAGAGGAUACUAUACAACCUUCAACCUCA,0.24 ± 0.025
7,GGAGACCUAACUAUACAACGUACUACCACA,0.165 ± 0.031
8,GGUCUGGUUACUAUACAACCUACAACCUCA,0.39 ± 0.04
9,GGUCUGGAUACUAUACAAGCUUCUACCUCA,0.163 ± 0.014
10,GGAGACCUUACUAUUCAACCUAGUACCUCA,0.395 ± 0.04
11,GGACUGGAUUGUAUACAACCUACUACCUCA,1.17 ± 0.13
12,GGAGACCUAACUAUACAACCUACUACGAGA,0.305 ± 0.087
13,GGACUGGUUACUAAACAACCUACUACCUCA,1.41 ± 0.14
14,GGAGACGAUACUUUACAACCAACUACCUCA,0.0791 ± 0.0084
15,GGAGACCUAUGUAUACAACCUACUACUCUCA,0.0944 ± 0.012
16,GGAGAGGAUACUAUACUACCUACUACGUCA,0.403 ± 0.032
17,GCUCUGGAUACUAUACAACCUACUACGCUCA,1.66 ± 0.1
18,CCUCUGCAUACUAUACAACCAACUACCUCA,0.176 ± 0.018
19,GGACUGCAUACUAUACAACCUACUACCUCA,1.55 ± 0.11
20,GGAGACCUAUCUAUACAACCUACUACGAGA,0.297 ± 0.068

row,Sequence,pre-steady-state target cleavage rate
1,GCUCUGGAUACUAUACAACCUACUACCUACA,1.87 ± 0.13
2,GGUGUGGAUACUAUAGAACCUACUACCUCA,1.35 ± 0.084
3,GCUCUGCAUACUAUACAACCUACUAGCUCA,1.13 ± 0.12
4,GCUCAGGAUACUAUACAAGCUACUACCUCA,1 ± 0.04
5,GGAGACCUUAGUAUACAACCUAGUACCUCA,0.16 ± 0.022
6,GGAGUGGAUACUAUACAACCUACUGCCUCA,0.869 ± 0.085
7,GGACUGGAUAGUAUACAACCUACUAGCUCA,0.00517 ± 0.0031
8,GGAGUGGAUACUAUACAACCUACUACCUAA,0.653 ± 0.051
9,GGUCUGGAUUCUAUACAACCAACUACCUCA,0.114 ± 0.0099
10,CCUGUGGAUACUAUACAACCUACUACGUCA,0.63 ± 0.066
11,GGAGUGGAUCCUAUACAACCUACUACCUCA,1.8 ± 0.16
12,GGUCUGGAUACUAUACUACCUAGUACCUCA,0.389 ± 0.075
13,GCUCAGGAUACUAUACAACCAACUACCUCA,0.139 ± 0.013
14,CCUCUGGAUACUAUACAACGAACUACCUCA,0.0274 ± 0.0066
15,GGAGUGGAUACUAUACAACCUCCUACCUCA,0.833 ± 0.047
16,CCUCUGGAUACUAUACAAGCUACAACCUCA,1.16 ± 0.067
17,CCUCUGGAUACUAUACAACGUACUACCUGA,0.26 ± 0.041
18,GGAGACCAUACUAUACAACCUACUUACCUCA,1.45 ± 0.092
19,GCUCUGGAUUCUAUACAACCUACUACCUCA,1.57 ± 0.11
20,CCACUGCAUACUAUACAACCUACUACCUCA,1.87 ± 0.11

# Reference: the supplement of paper PMC10338343
